The assay has as its target T1, recombinant full-length Flag-FAF1 expressed in bacteria (human, UniProt Q9UNN5-1 1-650).
T1 construct: FAF1, human, wild type, full length; modified pGEX6P-1 with a TEV site and a Flag-tag downstream of the GST; also called GST-TEV-Flag-FAF1 after cleavage; source: E. coli BL21, GST fusion, GST removed with AcTEV protease; not shown: GST, N-terminal, cleaved; Flag, N-terminal, kept
T1 sequence (looked up): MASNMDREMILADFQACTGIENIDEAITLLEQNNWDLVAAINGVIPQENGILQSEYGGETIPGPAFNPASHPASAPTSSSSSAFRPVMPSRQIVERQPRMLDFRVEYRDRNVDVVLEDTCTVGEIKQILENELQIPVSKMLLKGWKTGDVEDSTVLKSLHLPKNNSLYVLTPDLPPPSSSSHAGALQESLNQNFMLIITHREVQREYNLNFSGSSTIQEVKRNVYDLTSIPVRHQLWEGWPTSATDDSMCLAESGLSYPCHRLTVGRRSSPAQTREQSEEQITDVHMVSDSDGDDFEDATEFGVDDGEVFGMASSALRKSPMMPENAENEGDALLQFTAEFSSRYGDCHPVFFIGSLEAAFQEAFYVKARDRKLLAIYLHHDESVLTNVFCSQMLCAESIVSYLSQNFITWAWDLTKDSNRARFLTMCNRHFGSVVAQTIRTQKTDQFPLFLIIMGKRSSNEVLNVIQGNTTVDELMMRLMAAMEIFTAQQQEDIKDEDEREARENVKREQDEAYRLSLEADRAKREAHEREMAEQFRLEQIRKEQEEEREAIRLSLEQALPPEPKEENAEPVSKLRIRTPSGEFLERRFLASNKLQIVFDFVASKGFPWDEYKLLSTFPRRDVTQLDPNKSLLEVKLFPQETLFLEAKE
Put plainly: pull-down; 2 μg recombinant Flag-FAF1 mixed with 0.5 μg recombinant VAPB (1 to 210) in 400 μl buffer B (50 mM HEPES/KOH pH 7.5, 60 mM KOAc, 5 mM MgCl2, 5% glycerol, 0.1% Triton X-100), 30 min at 4°C, then anti-Flag beads 30 min at 4°C; immunoblot. The settings on record: both partners purified. In general terms: In western blotting, separated proteins are transferred to a membrane and probed.

B1: recombinant VAPB ([…]) wild type (domain or fragment)
chain: not shown
notes: VAPB, human, […], lacking the C-terminal transmembrane region; GST-TEV-VAPB was either eluted with glutathione or recovered by TEV cleavage; also called truncated version of VAPB lacking the C-terminal transmembrane region; source: E. coli BL21, GST-TEV fusion, purified on GSH-Sepharose
For B1, the binding result is given as “binds”.

B2: recombinant VAPB ([…]) P56S (domain or fragment)
chain: not shown
notes: VAPB, human, […], ALS-causing mutation found in patients; also called VAPB P56S; source: E. coli BL21, GST-TEV fusion, purified on GSH-Sepharose
Turning to B2, the binding result is given as “binds”.

Source of the values: PMC4068158, “VAPB/ALS8 interacts with FFAT-like proteins including the p97 cofactor FAF1 and the ASNA1 ATPase” (BMC Biology, 2014).
